From PubChem BioAssay AID488969 (Vanderbilt High Throughput Screening Facility, 2010)
The full ranking holds about 110,000 compounds; the median of “z-score” is about -0.1, and the highest 2% start at about 2. The list shows a part of the results. Activity calls are given as the source filed them.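 The calls were made as follows: active = z-score in the third read window above 3 or below -3; inactive = the rest.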

Biological target: Metabotropic glutamate receptor 8 (Rattus norvegicus) (UniProt P70579)
Sequence of UniProt P70579 (P70579 whole entry, looked up): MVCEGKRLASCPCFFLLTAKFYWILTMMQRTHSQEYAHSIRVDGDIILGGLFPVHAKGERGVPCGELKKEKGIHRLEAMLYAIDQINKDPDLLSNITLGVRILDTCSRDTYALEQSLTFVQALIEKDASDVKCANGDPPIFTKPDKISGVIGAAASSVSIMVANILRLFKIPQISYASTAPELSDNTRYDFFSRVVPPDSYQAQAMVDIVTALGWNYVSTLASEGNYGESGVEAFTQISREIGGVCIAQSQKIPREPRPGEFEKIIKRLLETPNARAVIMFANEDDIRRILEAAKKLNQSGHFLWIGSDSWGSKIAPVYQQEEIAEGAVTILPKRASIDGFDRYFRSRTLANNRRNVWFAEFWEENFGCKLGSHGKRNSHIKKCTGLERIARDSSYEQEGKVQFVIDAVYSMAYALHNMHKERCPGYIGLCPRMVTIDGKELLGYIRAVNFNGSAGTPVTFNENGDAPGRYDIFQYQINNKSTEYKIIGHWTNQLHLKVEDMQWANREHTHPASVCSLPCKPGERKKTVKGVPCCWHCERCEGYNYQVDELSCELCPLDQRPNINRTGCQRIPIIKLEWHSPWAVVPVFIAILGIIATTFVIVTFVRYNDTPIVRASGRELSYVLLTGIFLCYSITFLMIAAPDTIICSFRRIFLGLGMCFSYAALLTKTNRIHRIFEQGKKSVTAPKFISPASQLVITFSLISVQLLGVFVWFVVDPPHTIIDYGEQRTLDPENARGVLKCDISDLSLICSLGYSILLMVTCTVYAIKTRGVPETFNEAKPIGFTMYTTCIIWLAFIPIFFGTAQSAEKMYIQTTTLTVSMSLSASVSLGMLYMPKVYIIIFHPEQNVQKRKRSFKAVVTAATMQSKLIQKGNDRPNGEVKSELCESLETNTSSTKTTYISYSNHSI
Assay: mGluR8 Gi/Go-coupled signaling modulation – cell-based, rat, thallium flux, HTS, primary screen (AID 488969)
Conditions: HEK293 rat mGluR8, GIRK (G protein-gated inwardly rectifying potassium channel) thallium flux, FluoZin2; at 10 µM; stronger effect = higher value; submaximal glutamate (EC20) added with thallium

SMILES	z-score
Cn1c(C23CC4CC(CC(C4)C2)C3)n[nH]c1=S	0.216
C=CCn1c(SCC(=O)Nc2ncc(Cc3cc(Cl)ccc3Cl)s2)nnc1-c1ccncc1	-0.172
O=C(CSc1ncc(C(F)(F)F)cc1Cl)N1CCN(S(=O)(=O)c2ccccc2)CC1	0.188
COc1ccc(-n2cccc2C=O)cc1OC	-0.00678
CCNC(=S)N1CCC(c2nc3cc(C)c(C)cc3[nH]2)CC1	1.23
Nn1c(SCc2nc3ccccc3[nH]2)nnc1-c1ccccc1	-0.429
COc1cccc(-c2ccc(C#N)c(SCC(=O)NCCc3cccc(Cl)c3)n2)c1	-0.032
COc1ccc(CC(=O)NCc2ccc3c(c2)OCO3)cc1	-0.347
c1ccc(Oc2cccc(OCCCCSc3ncccn3)c2)cc1	-0.198
NC(=O)Cn1c(=O)n(C2CCCCC2)c(=O)c2c3c(sc21)CCCCC3	-0.267
Nc1ccc(Br)c2c1C(=O)c1ccccc1C2=O	-0.147
Cc1nn(CC(=O)O)c(=O)c2ccccc12	-0.269
CCCn1c(=O)c2ccccc2n2c(SCC(=O)c3ccc(CC)cc3)nnc12	-1.96
O=C1CCN1C1(C(=O)NC2CCCCC2)CCCC1	-0.104
CCOC(=O)C(C(=O)N1CCOCC1)C1CCCCC1 (stereo unspecified)	-0.434
C=CCNC(=O)c1onc(CSc2ccccc2)c1C(=O)O	-0.0618
Cc1cc(C)c(C#N)c(SCC(=O)N2CCN(Cc3ccccc3)CC2)n1	-0.392
Fc1ccc(/C=N/NC(=S)Nc2ccc(Cl)cc2)cc1F	active: 6.19
O=C(Nc1ccc(Cl)cc1F)C1CCN(S(=O)(=O)c2cccnc2)CC1	-0.223
COCc1cc(C)nc(OCC(=O)N/N=C/c2ccc(-c3cc([N+](=O)[O-])ccc3C)o2)c1C#N	-0.115
CCOc1ccc(-n2c(SCC(=O)Nc3cc(C)on3)nnc2-c2c[nH]c3ccccc23)cc1	-0.0629
C=CCOc1c(OC)cc(Cl)cc1C1NC(=O)NC(C)=C1C(C)=O (stereo unspecified)	-0.132
COCCCNS(=O)(=O)c1ccc2c(c1)CCN2C(C)=O	-0.32

SMILES	z-score
Cc1occc1C(=O)NNC(=O)C1CCCCC1	0.00473
COc1cccc(-c2[nH]nc3c2C(c2ccc(C)o2)C(C#N)=C(N)O3)c1 (stereo unspecified)	-0.259
CCOC(=O)CN1N=C(c2ccc(Cl)s2)CSC1=O	-0.0627
CCN(CC)c1nc(=S)nc(NC(C)(C)C)[nH]1	0.376
COc1cccc(-c2nnc(SCC(N)=O)n2-c2ccc(Cl)cc2)c1	-0.328
FC(F)(F)c1cc(-c2cccs2)n[nH]1	-0.152
CC(NC(=O)COc1cc(=O)n(C)c2ccccc12)c1ccc2c(c1)OCCO2 (stereo unspecified)	-0.783
COc1cc(OC)c(C2=NOC(C(=O)NCc3ccc4c(c3)OCO4)C2)cc1Cl (stereo unspecified)	-0.603
O=C1C(C=NC2CC2)=C(O)c2ccccc21	0.377
C=CCn1c(SCc2c(C)noc2C)nc2sc(C)c(C)c2c1=O	-0.301
CCn1c(SCc2ccccc2)nnc1C1CCN(S(=O)(=O)c2ccc(OC)cc2)CC1	0.613
CN(Cc1cccc(Cl)c1Cl)c1ccc(S(=O)(=O)N2CCCCC2)cc1[N+](=O)[O-]	0.0394
O=C(NNc1nc(-c2ccccc2)c2cc(Br)ccc2n1)c1ccc(S(=O)(=O)N2CCOCC2)cc1	-0.398
O=C(O)C1C2C=CC3(CN(Cc4ccco4)C(=O)C13)O2 (stereo unspecified)	0.079
CCCc1cc(=O)oc2cc3occ(C)c3cc12	0.769
CCN1CCN(Cc2ccc(NC(=O)Nc3ccccc3)cc2)CC1	0.302
Cc1cc2[nH]c(=O)c3ccccc3n2n1	active: 4.8
Cc1ccc(C(=O)N/C(=C\c2ccco2)C(=O)NCCCn2ccnc2)cc1C	-0.101
CCOC(=O)COc1ccc(C(=O)NC2CCCCC2)cc1	0.891
ClCc1csc(-c2ccc(Cl)cc2)n1	-0.215
CCOC(=O)C1CCCN(C(=O)c2c(-c3ccccc3Cl)noc2C)C1 (stereo unspecified)	0.278
CC(C)NC(=O)NC(=O)COC(=O)c1ccc(F)cc1F	0.305
CC1CCCN(S(=O)(=O)c2ccc(NC(=O)CN3CCN(C)CC3)cc2)C1 (stereo unspecified)	-0.00309

SMILES	z-score
Cc1ccc(NC(=S)NC(=O)c2ccc(-c3ccccc3)cc2)cc1	0.292
O=C(Nc1cc(Cl)cc(Cl)c1)c1cnn2cccnc12	0.519
CCn1c(SCC(=O)N2CCN(c3ccccc3)CC2)nnc1-c1ccoc1C	-0.305
O=C1C2C(C(=O)N1Cc1cccnc1)C1C=CC2C12CC2 (stereo unspecified)	-0.142
COC(=O)C1C(=O)c2c([nH]c(C(=O)OCCOC(C)C)c2C)CC1C (stereo unspecified)	0.216
CC(=O)c1cc2c(=O)c3ccccc3oc2nc1C	0.0756
O=C(c1ccc(Cl)s1)N1CCN(c2nc3ccccc3s2)CC1	0.00427
COc1cc(C2Nc3ccccc3C(=O)N2c2ccc3c(c2)OCCO3)ccc1OCC(C)C (stereo unspecified)	-0.661
CCOc1ccccc1OCC(=O)NCc1ccco1	0.0775
Cc1sc2c(c1C)CN(C1CC(C)(C)NC(C)(C)C1)CN2C(=O)c1ccco1	-0.477
COc1ccccc1N1CCN(c2cc(=O)n(-c3ccccc3Cl)c(=O)[nH]2)CC1	-0.415
Cc1ccc(-n2nnc3c(=O)n(CC(=O)N4CCCC4)cnc32)cc1	-0.284
Cc1onc(-c2ccccc2Cl)c1C(=O)Nc1ccc(S(=O)(=O)N2CCCC2)cc1	-0.528
O=C(CN1CCCCCCC1)N/N=C/c1ccc(F)c(F)c1	-0.563
O=C(O)c1ccccc1Nc1ccc([N+](=O)[O-])cc1	-0.445
O=C(CCCCCCN1C(=O)c2ccccc2C1=O)Nc1nccs1	-0.133
N#C/C(=N\Nc1ccccc1)C(=N)N1CCCCC1	-0.0975
CCC(C(=O)Nc1cccc(C(F)(F)F)c1)c1ccccc1 (stereo unspecified)	-0.483
O=C(NC(=S)NCC1CCCO1)c1ccccc1 (stereo unspecified)	0.575
COc1ccc(/C(O)=C/c2nc3ccccc3n(-c3ccccc3)c2=O)cc1	-0.642
O=C(NCc1cccnc1)c1cccc2c1C(=O)N(Cc1cccnc1)C2	-0.164
Cc1ccc(S(=O)(=O)C2C(=O)NC3(C)CC2c2ccccc2O3)cc1 (stereo unspecified)	-0.624
Cc1nn(Cc2ccc(C(=O)Nc3ccc(Br)c4cccnc34)o2)c(C)c1Br	1.16

SMILES	z-score
Cc1ccc2nc(/C(C#N)=C\c3ccc([N+](=O)[O-])o3)[nH]c2c1	0.358
c1ccc2c(c1)CNC1(CCCCC1)C2	0.24
CN(C)c1ccc(/C=N/Nc2ccc(-n3ccnc3)nn2)cc1	-0.181
CCC(C)NC(=O)c1cc(-c2ccc(OC)cc2)on1 (stereo unspecified)	-0.194
CCOC(=O)c1c(C)c(C(=O)Nc2ccc(N(C)C)cc2)c(C)n1CC	-0.524
O=C(N/N=C/c1ccc(OC(=O)c2ccc3c(c2)OCO3)cc1)c1cncc(Br)c1	-0.22
CC1(C)CC(=O)C2=C(C1)N=C1SCCC(=O)N1C2c1ccc(C(F)(F)F)cc1 (stereo unspecified)	0.534
CC(=O)Nc1ccc(Nc2ccc(N3C(=O)CCCC3=O)cc2[N+](=O)[O-])cc1	0.223
CCCCn1nnc(NC(=O)c2ccc(-c3cccc(Cl)c3)o2)n1	-0.581
Cc1ccc2nc(Cl)c(CN(C(=O)c3cnccn3)C3CCCCC3)cc2c1	-0.772
COc1ccc(Nc2nc3ccc(C)cc3cc2C#N)c(OC)c1	-0.143
COc1ccc(C(=O)NCCSc2ccccc2)cc1	-0.0064
O=C(NN1C(=O)c2ccccc2NC1c1ccccn1)c1ccc(Br)cc1 (stereo unspecified)	-0.669
CC(C)(C)C(=O)Nc1ccc(C(=O)N/N=C/c2ccccc2OC(=O)c2ccc(Cl)cc2)cc1	-0.655
CC(=O)OC1COC(N2CCc3cc([N+](=O)[O-])ccc32)C(OC(C)=O)C1OC(C)=O (stereo unspecified)	0.0841
CCCS(=O)(=O)N1CCN(C(=O)c2cc(OC)cc(OC)c2)CC1	0.273
Cc1ccc(/C=N\NC(=O)c2csnn2)cc1	0.237
Cc1ccc(C)c2[nH]c(=O)c(CN(Cc3cccs3)C(=S)NCc3ccco3)cc12	-0.0745
C=CCc1c(C)nc(SCC(N)=O)[nH]c1=O	0.00508
CCCCNC(=O)CC1N=C2c3ccccc3N=C(SCC(=O)Nc3ccccc3C)N2C1=O (stereo unspecified)	-0.545
COc1ccc2c(c1)C(=O)N(c1ccccc1OC)C(=O)C2(C)C	0.943
COc1ccc(CCn2nnnc2C(c2ccc(C)cc2)N2CCN(C)CC2)cc1OC (stereo unspecified)	0.0408
C#CCOc1ccc2c(C)cc(=O)oc2c1	-0.0974

SMILES	z-score
Cc1nnc(SCC(=O)N2CCN(c3ccccc3)CC2)n1-c1ccccc1	-0.268
O=C(O)CCC(=O)c1ccc2c(c1)OCCO2	-0.256
O=C(NCCc1ccccc1)C1CCC(Cn2c(=O)c3ccccc3n(Cc3cccc(F)c3)c2=O)CC1 (stereo unspecified)	-0.021
O=C(CSc1ccc(Cl)cc1)N1CCN(c2ncc(C(F)(F)F)cc2Cl)CC1	-0.0561
CC(=O)Nc1cccc(NC(=O)Nc2ccc(C(C)=O)cc2)c1	0.0984
NNC(=O)c1ccc([N+](=O)[O-])c(CS(=O)(=O)c2ccc(Cl)cc2)c1	0.293
O=P(O)(CP(=O)(c1ccccc1)c1ccccc1)c1ccccc1O	-0.233
CCOC(=O)N1CCN(C(=O)c2cccn3c(=O)c4cc(Cl)ccc4nc23)CC1	-0.274
Cc1ccccc1N/N=C/c1ccc(N2CCOCC2)cc1	-0.279
c1ccc(-c2cnn3nnnc3n2)cc1	0.318
C/C(=N\NC(=S)NC(C)C)c1ccc(-n2ccnc2)cc1	-0.306
Cc1ccc(-c2nn(CC(=O)N(C)C)c(=O)c3ccccc23)cc1S(=O)(=O)N(C)C	-0.0742
Cc1nn(Cc2cccc(F)c2)c(C)c1NC(=O)c1c([N+](=O)[O-])c(C)nn1C	0.203
CCOC(=O)c1c(C)nc2c(c1-c1cc(OC)ccc1OC)C(=O)c1ccccc1-2	0.434
Cc1ccc(SCCNC(=O)c2ccc(C)c([N+](=O)[O-])c2)cc1	-0.0609
O=c1oc2ccccc2cc1-c1nc(-c2cccs2)cs1	-0.0538
COc1cc(CNCCN2CCOCC2)ccc1OCc1c(Cl)cccc1Cl	0.114
Cc1ccc2c(c1)OC(=O)CC2c1ccccc1 (stereo unspecified)	-2.21
CCOc1ccc(Br)cc1CSC(=N)N	1.29
